# The supplement of paper PMC8728848
# Some of the results follow.
# B1: DrGRIFIN (Danio rerio), Q6DGJ1 (protein)
# chain: MTLRFEASCPDGLCPGWSVILKGETPPEASKFEINFLCDRDDRVAFHFNPRFTESDIICNSYMANRWGQEERCNHFPLGVEEPFQIEIYSDNDHFHVYIDKAKVMQYKHRVEDLKTITKLQVVNDVKISSLEITKKLFY
# Experiments:
# Experiment in all cases: glycan array binding signal (z-score within array); higher = stronger binding
# Details in all cases: glycan notation: IUPAC condensed, linker removed
# [1] = biological target: Fuc(a1-2)Gal6S(b1-3)GlcNAc6S
# In short: (§1)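 The binding signal is a Z-score computed within each array and averaged over linkers. Arrays of the same protein sequence at different concentrations or buffers were also averaged together. Data originate from 3228 arrays in the Consortium for Functional Glycomics database, kept only where the protein sequence was available.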
# Fuc(a1-2)Gal6S(b1-4)Glc = biological target: Fuc(a1-2)Gal6S(b1-4)Glc
# In short: as §1
# [2] = biological target: Fuc(a1-2)Gal6S(b1-4)Glc6S
# In short: as §1
# Fuc(a1-2)[Gal(a1-3)]Gal = biological target: Fuc(a1-2)[Gal(a1-3)]Gal
# In short: as §1
# [3] = biological target: Fuc(a1-2)[Gal(a1-3)]Gal(b1-3)GalNAc
# In short: as §1
# [4] = biological target: Fuc(a1-2)[Gal(a1-3)]Gal(b1-3)GalNAc(b1-3)Gal(a1-4)Gal(b1-4)Glc
# In short: as §1
# [5] = biological target: Fuc(a1-2)[Gal(a1-3)]Gal(b1-3)GlcNAc
# In short: as §1
# [6] = biological target: Fuc(a1-2)[Gal(a1-3)]Gal(b1-3)GlcNAc(b1-2)Man(a1-3)[Fuc(a1-2)[Gal(a1-3)]Gal(b1-3)GlcNAc(b1-2)Man(a1-6)]Man(b1-4)GlcNAc(b1-4)GlcNAc
# In short: as §1
# [7] = biological target: Fuc(a1-2)[Gal(a1-3)]Gal(b1-3)GlcNAc(b1-2)Man(a1-3)[Fuc(a1-2)[Gal(a1-3)]Gal(b1-3)GlcNAc(b1-2)Man(a1-6)]Man(b1-4)GlcNAc(b1-4)[Fuc(a1-6)]GlcNAc
# In short: as §1
# [8] = biological target: Fuc(a1-2)[Gal(a1-3)]Gal(b1-3)GlcNAc(b1-3)GalNAc
# In short: as §1
# [9] = biological target: Fuc(a1-2)[Gal(a1-3)]Gal(b1-3)GlcNAc(b1-6)GalNAc
# In short: as §1
# [10] = biological target: Fuc(a1-2)[Gal(a1-3)]Gal(b1-4)Glc
# In short: as §1
# [11] = biological target: Fuc(a1-2)[Gal(a1-3)]Gal(b1-4)GlcNAc
# In short: as §1
# [12] = biological target: Fuc(a1-2)[Gal(a1-3)]Gal(b1-4)GlcNAc(b1-2)Man
# In short: as §1
# [13] = biological target: Fuc(a1-2)[Gal(a1-3)]Gal(b1-4)GlcNAc(b1-2)Man(a1-3)[Fuc(a1-2)[Gal(a1-3)]Gal(b1-4)GlcNAc(b1-2)Man(a1-6)]Man(b1-4)GlcNAc(b1-4)GlcNAc
# In short: as §1
# [14] = biological target: Fuc(a1-2)[Gal(a1-3)]Gal(b1-4)GlcNAc(b1-2)Man(a1-3)[Fuc(a1-2)[Gal(a1-3)]Gal(b1-4)GlcNAc(b1-2)Man(a1-6)]Man(b1-4)GlcNAc(b1-4)[Fuc(a1-6)]GlcNAc
# In short: as §1
# [15] = biological target: Fuc(a1-2)[Gal(a1-3)]Gal(b1-4)GlcNAc(b1-3)GalNAc
# In short: as §1
# [16] = biological target: Fuc(a1-2)[Gal(a1-3)]Gal(b1-4)GlcNAc(b1-3)[Fuc(a1-2)[Gal(a1-3)]Gal(b1-4)GlcNAc(b1-6)]GalNAc
# In short: as §1
# [17] = biological target: Fuc(a1-2)[Gal(a1-3)]Gal(b1-4)GlcNAc(b1-6)GalNAc
# In short: as §1
# [18] = biological target: Fuc(a1-2)[Gal(a1-3)]Gal(b1-4)[Fuc(a1-3)]Glc
# In short: as §1
# [19] = biological target: Fuc(a1-2)[Gal(a1-3)]Gal(b1-4)[Fuc(a1-3)]GlcNAc
# In short: as §1
# [20] = biological target: Fuc(a1-2)[Gal(a1-3)]Gal(b1-4)[Fuc(a1-3)]GlcNAc(b1-3)GalNAc
# In short: as §1
# [21] = biological target: Fuc(a1-2)[Gal(a1-4)]Gal(b1-4)GlcNAc
# In short: as §1
# [22] = biological target: Fuc(a1-2)[GalNAc(a1-3)]Gal
# In short: as §1
# [23] = biological target: Fuc(a1-2)[GalNAc(a1-3)]Gal(b1-3)GalNAc(a1-3)[Fuc(a1-2)]Gal(b1-4)GlcNAc
# In short: as §1
# [24] = biological target: Fuc(a1-2)[GalNAc(a1-3)]Gal(b1-3)GalNAc(b1-3)Gal(a1-4)Gal(b1-4)Glc
# In short: as §1
# [25] = biological target: Fuc(a1-2)[GalNAc(a1-3)]Gal(b1-3)GlcNAc
# In short: as §1
# [26] = biological target: Fuc(a1-2)[GalNAc(a1-3)]Gal(b1-3)GlcNAc(b1-2)Man(a1-3)[Fuc(a1-2)[GalNAc(a1-3)]Gal(b1-3)GlcNAc(b1-2)Man(a1-6)]Man(b1-4)GlcNAc(b1-4)GlcNAc
# In short: as §1
# [27] = biological target: Fuc(a1-2)[GalNAc(a1-3)]Gal(b1-3)GlcNAc(b1-2)Man(a1-3)[Fuc(a1-2)[GalNAc(a1-3)]Gal(b1-3)GlcNAc(b1-2)Man(a1-6)]Man(b1-4)GlcNAc(b1-4)[Fuc(a1-6)]GlcNAc
# In short: as §1
# [28] = biological target: Fuc(a1-2)[GalNAc(a1-3)]Gal(b1-3)GlcNAc(b1-3)GalNAc
# In short: as §1
# [29] = biological target: Fuc(a1-2)[GalNAc(a1-3)]Gal(b1-3)GlcNAc(b1-6)GalNAc
# In short: as §1
# [30] = biological target: Fuc(a1-2)[GalNAc(a1-3)]Gal(b1-4)Glc
# In short: as §1
# [31] = biological target: Fuc(a1-2)[GalNAc(a1-3)]Gal(b1-4)GlcNAc
# In short: as §1
# [32] = biological target: Fuc(a1-2)[GalNAc(a1-3)]Gal(b1-4)GlcNAc(b1-2)Man
# In short: as §1
# [33] = biological target: Fuc(a1-2)[GalNAc(a1-3)]Gal(b1-4)GlcNAc(b1-2)Man(a1-3)[Fuc(a1-2)[GalNAc(a1-3)]Gal(b1-4)GlcNAc(b1-2)Man(a1-6)]Man(b1-4)GlcNAc(b1-4)GlcNAc
# In short: as §1
# [34] = biological target: Fuc(a1-2)[GalNAc(a1-3)]Gal(b1-4)GlcNAc(b1-2)Man(a1-3)[Fuc(a1-2)[GalNAc(a1-3)]Gal(b1-4)GlcNAc(b1-2)Man(a1-6)]Man(b1-4)GlcNAc(b1-4)[Fuc(a1-6)]GlcNAc
# In short: as §1
# [35] = biological target: Fuc(a1-2)[GalNAc(a1-3)]Gal(b1-4)GlcNAc(b1-3)Gal(b1-4)GlcNAc
# In short: as §1
# [36] = biological target: Fuc(a1-2)[GalNAc(a1-3)]Gal(b1-4)GlcNAc(b1-3)Gal(b1-4)GlcNAc(b1-3)Gal(b1-4)GlcNAc
# In short: as §1
# [37] = biological target: Fuc(a1-2)[GalNAc(a1-3)]Gal(b1-4)GlcNAc(b1-3)GalNAc
# In short: as §1
# [38] = biological target: Fuc(a1-2)[GalNAc(a1-3)]Gal(b1-4)GlcNAc(b1-3)[Fuc(a1-2)[GalNAc(a1-3)]Gal(b1-4)GlcNAc(b1-6)]GalNAc
# In short: as §1
# [39] = biological target: Fuc(a1-2)[GalNAc(a1-3)]Gal(b1-4)GlcNAc(b1-6)GalNAc
# In short: as §1
# [40] = biological target: Fuc(a1-2)[GalNAc(a1-3)]Gal(b1-4)[Fuc(a1-3)]GlcNAc
# In short: as §1
# [41] = biological target: Fuc(a1-2)[GalNAc(a1-3)]Gal(b1-4)[Fuc(a1-3)]GlcNAc(b1-3)GalNAc
# In short: as §1
# [42] = biological target: Fuc(a1-2)[GalNAc(a1-4)]Gal(b1-4)GlcNAc
# In short: as §1
# [43] = biological target: Fuc(a1-2)[GalNAc(b1-3)]Gal
# In short: as §1
binder,measurement,setting,value
B1,glycan array binding signal (z-score),[1],-0.187
same,glycan array binding signal (z-score),Fuc(a1-2)Gal6S(b1-4)Glc,-0.171
same,glycan array binding signal (z-score),[2],-0.069
same,glycan array binding signal (z-score),Fuc(a1-2)[Gal(a1-3)]Gal,-0.199
same,glycan array binding signal (z-score),[3],-0.115
same,glycan array binding signal (z-score),[4],-0.166
same,glycan array binding signal (z-score),[5],5.95
same,glycan array binding signal (z-score),[6],10.6
same,glycan array binding signal (z-score),[7],3.28
same,glycan array binding signal (z-score),[8],5.36
same,glycan array binding signal (z-score),[9],6.96
same,glycan array binding signal (z-score),[10],6.1
same,glycan array binding signal (z-score),[11],6.44
same,glycan array binding signal (z-score),[12],9.46
same,glycan array binding signal (z-score),[13],4.9
same,glycan array binding signal (z-score),[14],5.59
same,glycan array binding signal (z-score),[15],4.81
same,glycan array binding signal (z-score),[16],6.36
same,glycan array binding signal (z-score),[17],-0.151
same,glycan array binding signal (z-score),[18],-0.181
same,glycan array binding signal (z-score),[19],-0.147
same,glycan array binding signal (z-score),[20],-0.062
same,glycan array binding signal (z-score),[21],-0.139
same,glycan array binding signal (z-score),[22],-0.172
same,glycan array binding signal (z-score),[23],-0.151
same,glycan array binding signal (z-score),[24],-0.143
same,glycan array binding signal (z-score),[25],-0.194
same,glycan array binding signal (z-score),[26],-0.108
same,glycan array binding signal (z-score),[27],-0.149
same,glycan array binding signal (z-score),[28],-0.155
same,glycan array binding signal (z-score),[29],-0.113
same,glycan array binding signal (z-score),[30],-0.127
same,glycan array binding signal (z-score),[31],-0.191
same,glycan array binding signal (z-score),[32],-0.194
same,glycan array binding signal (z-score),[33],-0.08
same,glycan array binding signal (z-score),[34],-0.158
same,glycan array binding signal (z-score),[35],-0.171
same,glycan array binding signal (z-score),[36],-0.163
same,glycan array binding signal (z-score),[37],-0.066
same,glycan array binding signal (z-score),[38],-0.185
same,glycan array binding signal (z-score),[39],-0.23
same,glycan array binding signal (z-score),[40],-0.173
same,glycan array binding signal (z-score),[41],-0.101
same,glycan array binding signal (z-score),[42],-0.199
same,glycan array binding signal (z-score),[43],-0.177
